Measurements reported in article PMC4336329 (PLoS ONE, 2015).
Out of some 310,000 compounds screened, about 14,000 (4.5%) showed an effect of 50% or more. The effect is printed as a negative number. The list shows a part of the results.

The compounds below were run against human ether-à-go-go-related gene (hERG) potassium channel (human, UniProt Q12809) (assay: primary screen, population patch clamp on CHO cells stably expressing hERG).
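Note: peak tail current of the secondary pulse compared with the same well before compound.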

Chain of human ether-à-go-go-related gene (hERG) potassium channel (Q12809 whole entry, looked up): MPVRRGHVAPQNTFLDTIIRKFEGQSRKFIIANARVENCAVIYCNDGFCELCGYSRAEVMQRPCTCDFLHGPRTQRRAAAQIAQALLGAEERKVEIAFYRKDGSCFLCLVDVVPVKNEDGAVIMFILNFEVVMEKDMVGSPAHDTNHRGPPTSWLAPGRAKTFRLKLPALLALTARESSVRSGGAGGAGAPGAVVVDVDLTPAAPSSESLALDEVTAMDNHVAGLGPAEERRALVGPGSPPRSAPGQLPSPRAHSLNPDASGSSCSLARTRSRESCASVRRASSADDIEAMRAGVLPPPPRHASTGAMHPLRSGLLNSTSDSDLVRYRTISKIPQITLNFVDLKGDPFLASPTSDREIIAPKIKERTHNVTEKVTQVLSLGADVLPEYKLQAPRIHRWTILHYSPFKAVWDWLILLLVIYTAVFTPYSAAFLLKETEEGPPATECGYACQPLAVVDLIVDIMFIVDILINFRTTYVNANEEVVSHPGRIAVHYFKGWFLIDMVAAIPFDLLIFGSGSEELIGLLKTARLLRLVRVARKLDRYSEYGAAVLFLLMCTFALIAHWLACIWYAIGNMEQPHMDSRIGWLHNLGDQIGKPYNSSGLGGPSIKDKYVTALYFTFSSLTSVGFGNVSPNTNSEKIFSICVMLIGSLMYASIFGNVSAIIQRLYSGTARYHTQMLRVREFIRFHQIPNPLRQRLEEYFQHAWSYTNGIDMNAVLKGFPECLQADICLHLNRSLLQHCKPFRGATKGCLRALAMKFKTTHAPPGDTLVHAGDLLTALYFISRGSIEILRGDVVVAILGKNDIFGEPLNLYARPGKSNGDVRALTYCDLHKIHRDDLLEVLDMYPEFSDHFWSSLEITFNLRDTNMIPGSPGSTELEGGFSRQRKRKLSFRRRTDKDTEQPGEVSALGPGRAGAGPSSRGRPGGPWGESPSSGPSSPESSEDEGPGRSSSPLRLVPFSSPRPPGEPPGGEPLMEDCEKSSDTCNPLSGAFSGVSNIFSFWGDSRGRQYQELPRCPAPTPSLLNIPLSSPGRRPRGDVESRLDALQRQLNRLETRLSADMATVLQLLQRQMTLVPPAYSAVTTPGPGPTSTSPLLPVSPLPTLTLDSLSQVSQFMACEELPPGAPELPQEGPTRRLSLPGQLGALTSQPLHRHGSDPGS

SMILES | hERG current change (%, negative = inhibition) at 10uM
Nc1nc(SCc2ccccc2)n[nH]1 | -1.03%
O=C(O)CN1C(=O)/C(=C\C(Br)=C\c2ccccc2)SC1=S | 11.3%
Cc1cc(=O)[nH]c(SCC(=O)NNC(=O)Cc2ccccc2)n1 | -2.15%
COC(=O)c1ccccc1NC(=S)NC(NC(=O)c1ccccc1[N+](=O)[O-])C(Cl)(Cl)Cl (stereo not drawn) | -1.4%
C/C(CC(=O)NCCCN1CCOCC1)=N\NC(=O)COc1ccc(C)cc1 | 13.9%
COc1ccc(Sc2ncnc3onc(C)c23)cc1 | 4.3%
Cc1cccnc1Nc1ncnc(N)c1[N+](=O)[O-] | -0.167%
COc1cc2[nH]c3c(N4CCN(c5ccc(Cl)cc5)CC4)ncnc3c2cc1OC | -4.15%
C=CCn1c(=O)c(C(=O)Nc2ccc(C)cc2)c(O)c2ccccc21 | 30.8%
COc1cc(C(=O)NCCCCc2ccccc2)cc(OC)c1OC | 0.271%
CCCc1cc(=O)[nH]c(SCC(=O)N(C)C2CCCCC2)n1 | 9.03%
CC(C)(O)C#Cc1ccc(CN2CCN(C3CCCCC3)C(CCO)C2)s1 (stereo not drawn) | 16.7%
Cc1cc(=O)[nH]c(N/N=C/c2cn(CCC#N)nc2-c2ccccc2)n1 | 16.7%
COc1cccc(-c2nc(=S)c3c(n2CCCO)CCCC3)c1 | 3.34%
CSCCC(NC(=O)c1ccccc1Cl)C(=O)Nc1cccc(S(=O)(=O)N2CCCC2)c1 (stereo not drawn) | 11.5%
O=C(COC(=O)c1cc(S(=O)(=O)N2CCOCC2)ccc1O)Nc1cc(S(=O)(=O)N2CCCC2)ccc1Cl | 9.55%
COC(=O)C1CC(=O)c2ccsc2C1 (stereo not drawn) | 1.13%
C=CCOc1cccc(C(=O)/C=C2/C(=O)Nc3ccccc32)c1 | 21.9%
CCOC(=O)c1cc(-c2ccccc2)sc1NC(=O)C(C)N1C(=O)NC(C)(c2ccc(Cl)cc2)C1=O (stereo not drawn) | 4.01%
COc1ccc(NC(=O)CCCc2ccccc2)cc1OC | 11.3%
Cc1ccc(NC(=O)C(OC(=O)c2ccccc2Cl)c2ccccc2)cc1Cl (stereo not drawn) | 13.6%
COc1ccc(CNC(=O)CN(C)S(=O)(=O)c2ccc(Br)s2)cc1 | -12.7%
COc1cccc(CNC2CCCCCCC2)c1OC | 10.5%

SMILES | hERG current change (%, negative = inhibition) at 10uM
CC1CCN(S(=O)(=O)c2ccc(C(=O)NCc3cccnc3)cc2)CC1 | -5.44%
CC1=C(C(=O)OCC(Cl)(Cl)Cl)N2C(=O)C(NC(=O)Cc3ccccc3)C2SC1 (stereo not drawn) | 15.5%
CCCCCCCNC(=O)CN1N=C(c2ccc(C)cc2)CCC1=O | -67.8%
CC(Sc1ncccn1)C(=O)NC1CCCC1 (stereo not drawn) | 5%
O=C(CCC1CCCN(C(=O)c2cc3ccccc3o2)C1)NCc1ccc(F)c(F)c1 (stereo not drawn) | -36.9%
Cc1cc(NC(=O)Nc2cccc(C)c2C)no1 | 16%
Cc1nn(C)c(Nc2ccc(Br)cc2)c1Br | -8.49%
Cc1ccnc(NS(=O)(=O)c2ccc(NC(=O)CCOc3ccccc3)cc2)n1 | 15.7%
CCOC(=O)c1sc2nc(C)nc(Nc3ccc(OC)cc3)c2c1C | 24.1%
COC(=O)c1ccccc1NC(=O)N1CCN(S(C)(=O)=O)CC1 | 22.2%
O=C(Cn1nnc(-c2cccs2)n1)NCCc1ccccc1 | 5.74%
CC(C)CC[n+]1ccn(-c2nc3ccccc3nc2[N-]S(=O)(=O)c2ccccc2)c1 | 0.998%
O=C(NCc1ccccc1)c1csc2c1CCCC2 | 5.15%
O=C(c1ccc(F)cc1)N1CCC(N2CCOCC2)CC1 | -5.45%
COc1cccc(NC(=O)CN(C)C(=O)/C=C/c2cn(-c3ccccc3)nc2-c2ccc(C)cc2)c1 | -2.64%
CCN(CC)c1nc2n(c(=S)n1)CCS2 | 3.89%
Cc1ccc(S(=O)(=O)N(CC(=O)NCC2CCCO2)C2CCCCC2)cc1 (stereo not drawn) | -10.6%
CC(=O)C1C(c2cccc([N+](=O)[O-])c2)C2C(C)=NN=C2CC1(C)O (stereo not drawn) | 1.42%
COc1ccc(Cn2c(N)c(S(=O)(=O)c3cccs3)c3nc4ccccc4nc32)cc1 | 1.62%
Cc1cc(C)c2c(CC(=O)NCCc3ccccc3)coc2c1 | 14.8%
CC(=O)NC(Cc1ccccc1C)C(=O)NC1CCN(C(=O)c2ccc(C)cc2)CC1 (stereo not drawn) | -19.9%
OC(CN1CCN(Cc2ccccc2)CC1)c1ccccc1 (stereo not drawn) | -30.3%
COc1ccc(Nc2nc3c(C)cccc3cc2C#N)c(OC)c1 | 12.1%

SMILES | hERG current change (%, negative = inhibition) at 10uM
COc1ccc(C2c3[nH]c4ccccc4c3C[C@H]3C(=O)N(c4ccccc4C(=O)NCCN4CCOCC4)C(=O)N23)cc1 (stereo partly drawn) | -23.7%
CCCCCCSc1cc(-c2nc3cc(C)ccn3c2NC2CCCCC2)ccc1OC.O=C(O)C(F)(F)F | 10.3%
Cn1nc(C(F)(F)F)c(-c2ccccc2)c1NC(=O)c1nccnc1C(=O)O | 19.2%
CCCCn1c(N)c(N(CCC(C)C)C(=O)C2CCCC2)c(=O)[nH]c1=O | 1.27%
CSc1snnc1-c1ccccc1 | 25.6%
CCN(C(=O)c1ccc2c(=O)n3c(nc2c1)CCCCC3)c1ccc(F)cc1 | -3.52%
CC(C)(C)Cc1nc(-c2ccc(Cl)cc2)no1 | 14.9%
CCOCCn1c(CN2CCc3ccccc3C2)nc2c1c(=O)n(C)c(=O)n2C | -7.38%
Cc1ccc(OCc2ccc(C(=O)Nc3ccc(C(N)=O)cc3)o2)c([N+](=O)[O-])c1 | 10.5%
CC1CCCCC1NC(=O)CSc1nnc(N)s1 (stereo not drawn) | -22.7%
CCCCNC(=O)C1(O)c2ccccc2NC(=O)N1c1ccc(Cl)cc1 (stereo not drawn) | 13.3%
CCOc1ccc(/C=N/NC(=O)C(O)c2ccccc2)c(O)c1 (stereo not drawn) | 15.3%
Nc1nnc(SCCN2C(=O)c3ccccc3S2(=O)=O)s1 | 6.63%
COCCCn1c(=O)c2sccc2n2c(CCCC(=O)N3CCN(c4ccccn4)CC3)nnc12 | -2.18%
COc1cc(NS(=O)(=O)N2CCCC2)cc(OC)c1OC | 4.77%
O=C(NCc1ccccc1)C1(C(F)(F)F)C/C(=C/CCO)CCCO1 (stereo not drawn) | 5.71%
CS(=O)(=O)N(CC(=O)Nc1ccccc1C(=O)N1CCCC1)c1cccc([N+](=O)[O-])c1 | -13.2%
COc1ccc2c(c1)C(NS(=O)(=O)OCC(Cl)(Cl)Cl)CCC2 (stereo not drawn) | -0.647%
CCOc1ccc(NCCC#N)cc1 | -7.61%
O=c1[nH]c(NCc2ccccc2)nc2c1CCC2 | 12.2%
COc1ccc(C(=O)C2CCCN(C3CSCCSC3)C2)cc1OC (stereo not drawn) | -21.8%
COc1ccc(/C=C2\CCn3c2nc2cc(C(=O)O)ccc2c3=O)cc1O | 2.38%
NC(=O)C1CC(=O)N(c2ccc(OCC(=O)Nc3ccccc3F)cc2)C1 (stereo not drawn) | 12.2%

SMILES | hERG current change (%, negative = inhibition) at 10uM
Cc1cccc(N(CC(=O)NC2CCCC2)C(=O)CCCC(=O)Nc2ccccn2)c1 | -2.02%
CCC1CCCCN1C(=O)CSc1nc2c([nH]c3ccccc32)c(=O)n1C (stereo not drawn) | 9.72%
Cc1ccc(CNC(=O)C2CCCN(S(=O)(=O)N3CCC(C)CC3)C2)cc1 (stereo not drawn) | 9.17%
NC(=O)c1cc([N+](=O)[O-])ccc1N1CCN(Cc2ccccc2)CC1 | -41.8%
CCn1c(CNC(=O)c2ccc(Cl)cc2)nnc1SCC(=O)N1CCOCC1 | -1.05%
CC(=O)Nc1ccc(S(=O)(=O)N2CCC(C(=O)Nc3nccs3)CC2)cc1 | 12.7%
CC(=O)N(c1ccc(C)cc1)C1C=CS(=O)(=O)C1 (stereo not drawn) | 7.3%
CCc1ccc(/C=N/NC(=O)Cc2ccc(OC)c(OC)c2)s1 | 3.47%
c1ccc2c(c1)COC(CN1CCCCC1)OC2 | 0.482%
CC(C)Cn1c(N)c(C(=O)COC(=O)c2cc(C(F)(F)F)nc3ccccc23)c(=O)n(C)c1=O | 0.872%
O=C(COc1ccc(F)cc1Cl)NC1CCCCCC1 | -5.81%
COc1ccc(-n2ncc3c2CC(C)(C)CC3NC(=O)c2c(C)cc(=O)oc2C)cc1 (stereo not drawn) | -51.1%
N#Cc1ccc(C(=O)OCC(=O)Nc2ccc(S(N)(=O)=O)cc2)cc1 | -0.961%
COc1cccc(C(Nc2ccccn2)c2oc(CO)cc(=O)c2O)c1 (stereo not drawn) | 9.73%
CCC(=O)Nc1ccc(C(=O)n2ccc(C)n2)cc1 | 13.1%
O=C1CC(Cc2ccc(Cl)cc2)C(=O)N1c1cc(Cl)ccn1 (stereo not drawn) | -36%
COC(=O)N/N=C1\CCCc2ccccc21 | 10.7%
O=C(COc1coc(CN2CCN(c3ccc(F)cc3)CC2)cc1=O)NC1CCCC1 | -53.1%
O=C(Nc1cccc(S(=O)(=O)N2CCCCC2)c1)c1ccc2c(c1)OCO2 | -8.11%
COc1cc(CN2CC3CC(C2)c2cccc(=O)n2C3)cc(OC)c1OC (stereo not drawn) | -6.41%
CCCCC1=CC2=CC(=O)C(C)(OC(=O)CC)C(=O)C2=CN1CCCOC(C)C (stereo not drawn) | -7.36%
